# Results from the supplement of paper PMC10338343.
# ± gives the standard deviation. Whole data set: some 5,500 sequences, median “pre-steady-state target cleavage rate” near 0.1, cut for the highest 2% near 0.64. This is a selection; strong and weak results do not stand in their true shares.
# Tested on: MIWI (PIWIL1) piRISC loaded with piRNA #2 (30 nt)
# Test: pre-steady-state target cleavage rate (min^-1); MIWI and MILI are mouse PIWI proteins and EfPiwi is from a freshwater sponge; tags in brackets are library labels; higher = faster piRNA-guided slicing of the target
# Settings: guide: piRNA #2 5'p-UUAGGUAACCCAGUAGAUCCAGAGGAAUUC; auxiliary factor: 500 nM mouse GTSF1
# How it was run: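 At 33 °C in HEPES–potassium acetate buffer, a transcribed, DNA-blocked target RNA library […] was exposed for 0–8 or 0–960 min to 1 nM active affinity-purified piRISC carrying a single synthetic guide, with or without 500 nM GTSF1 partner protein. Uncleaved targets were sequenced and normalised to depth and to weakly complementary targets. With three trials pooled and k3 capped at 0.0001 min^-1, a burst-and-steady-state fit produced the pre-steady-state cleavage rate.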
row,Sequence,pre-steady-state target cleavage rate
1,CUAUUCCUGUGGAUCUACUGGGUAACCUAA,0.19 ± 0.041
2,CUUAACCUCUGGAUCUACUGGGUUACCUAAA,0.174 ± 0.024
3,CUUUGCCUCUGGAUCUACUGGGUUACCUAA,0.286 ± 0.031
4,CAAUAUCCUCUGGAUCUACUGGGUUACCUAA,0.488 ± 0.075
5,CUUAAGGACUGGAUCUACUGGGAUACGUAA,0.0915 ± 0.035
6,CUUUUCCUCUGCAUCUACUGGGUUACGUAA,0.286 ± 0.035
7,CUUAAGCUCUCGAUCUACUGGCUUACCUAA,0.11 ± 0.0093
8,GAAUUCUCUCUGGAUCUACUGGGUUACCUAA,0.252 ± 0.05
9,CUUAACCUCUGGAUCUACUGGGUUACCUAA [g2:g25:cont:t1A],0.228 ± 0.033
10,GAAUUCCUCUGGAUCUUCUGGGUUACCUUA,0.226 ± 0.046
11,CAAUCUCCUCUGGAUCUACUGGGUUACCUAA,0.425 ± 0.069
12,CUAAUCCUCUGGAUCUUCUGGGUUACCUAA,0.464 ± 0.059
13,CUUUUCCACUGCAUCUACUGGGUUACCUAA,0.406 ± 0.024
14,CUAUUCCUCUGGAUCUACUGCGUAACCUAA,0.175 ± 0.043
15,CUUAAGGUCUGCAUCUACUGGGUUACCUUA,0.0594 ± 0.01
16,CUUAAGGAGUGGAUCUACUGGGUAACGUAA,0.0159 ± 0.0086
17,GAAUUCCUGUGGAUCUACUGGGUUACCAAA,0.1 ± 0.021
18,CUUAAGCUCUGCAUCUACUGCGUUACCUAA,0.315 ± 0.048
19,CUAUUCCUCUGAAUCUACUGGGUUACCUAA,0.25 ± 0.046
20,CAAUUCCUCUGGUAGUACUGGGUUACCUAA,0.247 ± 0.031

row,Sequence,pre-steady-state target cleavage rate
1,CUUAAGGACUGGAUCUACUGGGUUACUAA,0.0207 ± 0.018
2,CUUAAGCUCUGGUUCUACUGGCUUACCUAA,0.0753 ± 0.0091
3,CUUUACCUCUGCAUCUACUGGGUUACCUAA,0.348 ± 0.027
4,CUAUUCCUCUGGAUCUACUGGGUUACCUAC [g2:g28:cont:t1C],0.295 ± 0.037
5,CAAUUCCACUGGAUCUUCUGGGUUACCUAA,0.461 ± 0.066
6,GAAUUCCUCAGGAUCUACUGGGUUACCAAA,0.459 ± 0.055
7,CUUAACCUCUGGAUCUACUGCGUUACGUAA,0.254 ± 0.039
8,CUUAAGCUCUGGAUCAACUGGGUUUCCUAA,0.055 ± 0.01
9,CUUAACCUCUGGAUCAACUGGGAUACCUAA,0.0682 ± 0.0085
10,CUAUUCCUCAGGAACUACUGGGUUACCUAA,0.332 ± 0.035
11,CUAUUCCUCUGGAUCUACUGGGAUUCCUAA,0.0897 ± 0.032
12,CAAUUCCUCUGGAAUCUACUGGGUUACCUAA,0.493 ± 0.056
13,CUUAACCUCUGGUUCUACUGGGAUACCUAA,0.0765 ± 0.02
14,CUUUUCCUCUGGAUCUACUGGGUUACCGAA,0.23 ± 0.05
15,CUAAACCUCUGGAUCUACUGGGUUACCUAA,0.266 ± 0.04
16,CAAUACCUCUGGAUCUACUGGGUUAGCUAA,0.343 ± 0.065
17,CAAUUCCUGUGGAUCAACUGGGUUACCUAA,0.418 ± 0.039
18,CUUAUGCUCUGGAUCUAGUGGGUUACCUAA,0.0604 ± 0.0069
19,CUUUUCCUCUGGAUCUACUGGGUUUGGAUA [g7:g27:cont:t1A],0.00697 ± 0.004
